± gives the standard deviation of the averaged measurements. In all, about 3,600 compounds were measured (“viability index relative to DMSO control”: median about 0.81, lowest 2% from about 0.13 on). The list shows a part of the results.
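Further: 384-well serum-free SaLSSA: MitoTracker Red CMXRos staining with saponin lysis, high-content imaging, treated-well particle count divided by plate-mean count of DMSO wells.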

The assay relates to Plasmodium falciparum NF54 stage V gametocytes. Briefly: viability index relative to DMSO control (fraction); higher = less gametocyte killing. Conditions: 1.25 µM, incubation time: 72 h.
The molecule `Oc1ccccc1C=Nc1ccccc1[Te]c1ccccc1N=Cc1ccccc1O` had a viability index of 0.0513.

Molecule `CCc1cc2c(cc1-c1csc(NC(=N)N)n1)C(C)(C)CCC2(C)C` yielded a viability index of 0.759.

For `C=CC1CN2CCC1CC2C(O)c1ccnc2ccccc12` (centres undefined), the viability index was found to be 0.751 ± 0.046.

As to `Cc1ccc2c(c1)C1CN(C)CCC1N2C(=O)c1cc2ccccc2o1` (centres undefined), the viability index stood at 0.982.

`CN1CCN(c2ccc(NC(=O)Oc3ccccc3)cc2)CC1` had a viability index of 0.798.

Consider `C[C@@H]1C[C@@H]([C@H](O)CC2CC(=O)NC(=O)C2)C(=O)[C@@H](C)C1`, for which the viability index turned out to be 0.308.

Regarding `CN1CCc2cc3c(c4c2C1Cc1ccccc1-4)OCO3` (centres undefined), the viability index is 0.975.

`CC1CCC2C(C)C(=O)OC3OC4(C)CCC1C32OO4` (centres undefined) came in with a viability index of 0.5.

The molecule `COC(=O)c1ccc(Cn2cc(C=O)c3ccccc32)o1` gave a viability index of 0.971.

Regarding `O=c1cccc2n1CC1CC2CN(Cc2cccc(O)c2)C1` (centres undefined), the viability index was determined as 0.898.

For `CCOC(=O)CC(C)(O)P(=O)(OC)OC` (centres undefined), the viability index amounted to 1.28.

The molecule `CC(C)(C)C(/C=C/c1ccc(Cl)cc1Cl)n1nnnc1C1(Nc2ccc(Cl)cc2)CCCCC1` (centres undefined) registered a viability index of 0.877.

With `COc1ccc(C(Cc2ccccc2)NC2CN3CCC2CC3)cc1` (centres undefined), the viability index worked out at 1.19.

Molecule `O=C(Cn1c2ccccc2c(=O)c2ccccc21)Nc1ccc([N+](=O)[O-])c(Br)c1` showed a viability index of 0.815.

Take `N#CC1=C(N)Oc2c(c(=O)oc3ccccc23)C1c1ccoc1` (centres undefined): the viability index came out at 1.08.

`CCCCCCCCCCCCn1ccc(=N)cc1` came in with a viability index of 0.48.

For `CCCCCCc1cc(O)c2c3c(c(=O)oc2c1)CCC(C)C3` (centres undefined), the viability index was found to be 0.588.

Consider `c1ccc(CCNC2CCN(Cc3ccccc3)CC2)cc1`, for which the viability index worked out at 0.759.

With `C=CC1CN2CCC1CC2[C@H](O)c1ccnc2ccc(O)cc12` (some centres undefined), the viability index is 0.687.

The molecule `CCC1CN2CCC1CC2C(O)c1ccnc2ccccc12` (centres undefined) showed a viability index of 0.712.

`C[n+]1c2n(c3ccccc31)N=C(c1ccccc1)C[Se]2` registered a viability index of 1.03.

In turn, `Clc1cccc(CNC2CCN(CCc3ccccc3)CC2)c1` had a viability index of 0.939.

Take `O=C1Nc2ccccc2Sc2ccccc21`: the viability index worked out at 0.877.

`CCC(C)N1CCN(Cc2cccc(OC)c2OC)CC1` (centres undefined): the viability index stood at 0.882.

The molecule `Cc1nc2ccccc2c(=O)n1-c1ccc([N+](=O)[O-])cc1` returned a viability index of 0.58.

In the case of `NC(=O)CN1CC(O)CC1=O` (centres undefined), the viability index was found to be 0.0308.

In turn, `C=CC1CN2CCC1CC2C(OC(=O)c1ccco1)c1ccnc2ccccc12` (centres undefined) showed a viability index of 0.46.

In turn, `OC1(c2ccc(Cl)c(C(F)(F)F)c2)CCN(CCOC2c3ccccc3CSc3ccc(Cl)cc32)CC1` (centres undefined) gave a viability index of 0.589.

`CC(C)[C@@]1(NC(=O)[C@@H]2C[C@@H]3c4cccc5[nH]cc(c45)C[C@H]3N(C)C2)O[C@@]2(O)[C@@H]3CCCN3C(=O)[C@H](Cc3ccccc3)N2C1=O` came in with a viability index of 0.74.

The values are drawn from the supplement of paper PMC4723716.
